The record followed here is paper PMC4336329 (PLoS ONE, 2015).

Each structure is given as a SMILES string. Among all 310,000 compounds or so, about 14,000 (4.5%) showed an effect of 50% or more. The effect is printed as a negative number. The list shows a part of the results.
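Further: peak tail current of the secondary pulse compared with the same well before compound.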

The assay deals with human ether-à-go-go-related gene (hERG) potassium channel (human, UniProt Q12809). Description: primary screen, population patch clamp on CHO cells stably expressing hERG.
human ether-à-go-go-related gene (hERG) potassium channel, sequence (Q12809 whole entry, looked up): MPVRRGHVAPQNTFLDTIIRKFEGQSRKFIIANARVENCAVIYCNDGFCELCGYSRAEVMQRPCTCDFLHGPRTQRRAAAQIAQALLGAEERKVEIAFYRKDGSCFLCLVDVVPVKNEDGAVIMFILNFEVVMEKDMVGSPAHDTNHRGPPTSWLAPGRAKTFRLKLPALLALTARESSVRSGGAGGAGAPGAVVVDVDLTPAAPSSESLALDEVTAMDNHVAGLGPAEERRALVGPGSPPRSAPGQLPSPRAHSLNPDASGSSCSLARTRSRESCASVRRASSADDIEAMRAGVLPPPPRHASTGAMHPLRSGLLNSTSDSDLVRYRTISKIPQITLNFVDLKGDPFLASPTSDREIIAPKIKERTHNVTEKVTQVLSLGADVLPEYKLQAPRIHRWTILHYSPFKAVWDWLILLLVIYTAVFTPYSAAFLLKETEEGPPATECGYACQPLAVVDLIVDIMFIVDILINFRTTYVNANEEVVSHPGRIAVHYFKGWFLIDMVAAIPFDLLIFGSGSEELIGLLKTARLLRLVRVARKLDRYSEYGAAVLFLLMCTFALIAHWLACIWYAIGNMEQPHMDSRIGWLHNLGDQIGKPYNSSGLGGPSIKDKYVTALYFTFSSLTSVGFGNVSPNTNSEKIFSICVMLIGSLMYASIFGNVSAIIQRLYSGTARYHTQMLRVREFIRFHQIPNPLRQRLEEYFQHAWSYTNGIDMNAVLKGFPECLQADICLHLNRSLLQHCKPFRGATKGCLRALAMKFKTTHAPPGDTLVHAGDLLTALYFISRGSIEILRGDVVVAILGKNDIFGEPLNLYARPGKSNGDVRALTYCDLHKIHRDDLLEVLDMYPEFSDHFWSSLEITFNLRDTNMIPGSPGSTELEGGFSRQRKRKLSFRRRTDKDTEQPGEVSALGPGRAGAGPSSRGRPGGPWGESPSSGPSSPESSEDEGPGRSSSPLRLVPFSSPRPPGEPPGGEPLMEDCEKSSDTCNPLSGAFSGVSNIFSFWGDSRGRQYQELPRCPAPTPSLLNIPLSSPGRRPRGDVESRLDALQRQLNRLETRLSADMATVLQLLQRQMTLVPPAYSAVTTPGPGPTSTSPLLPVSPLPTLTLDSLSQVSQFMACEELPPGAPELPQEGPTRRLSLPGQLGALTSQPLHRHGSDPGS
Regarding `Cc1cc(C)c2c(N)c(C(=O)c3ccccc3)oc2n1`, the “hERG current change (%, negative = inhibition) at 10uM” value is -10.2%. Next, `Cn1c(N)c(C(=O)COC(=O)c2cc(C(F)(F)F)nc3ccccc23)c(=O)n(C)c1=O`: -32.9%; `Cc1cc(-c2ccc(C(C)C)c(S(=O)(=O)N3CCOc4ccccc43)c2)on1`: 20.2%; `CCOC(=O)c1cc2sccc2n1CC(=O)Nc1ccc(OC)cc1OC`: 0.145%. Then `Cc1ccc(NC(=O)COc2nc(C)cs2)cc1`, with 9.14%; and `Cc1oc2ccc(O)c(CN3CCOCC3)c2c1C(C)O` (centres unmarked), with 2.88%; and `Cc1ccc(S(=O)(=O)CCC(=O)OCC(=O)Nc2cc(F)ccc2C)cc1`, with 9.01%.

Take `COc1cc(NC(C)=O)c2ncccc2c1[N+](=O)[O-]`: the “hERG current change (%, negative = inhibition) at 10uM” value was -5.4%. Turning to `O=C(CCN1C(=O)/C(=C/c2cccs2)SC1=S)NNC(=O)c1cccc(O)c1`, the “hERG current change (%, negative = inhibition) at 10uM” value is recorded as 8.81%. On to `Cc1ccc(S(=O)(=O)c2nc(-c3cccs3)oc2NCc2cccnc2)cc1`, for which the “hERG current change (%, negative = inhibition) at 10uM” value is reported as -18.3%. On to `Cc1ccc(CNC(=O)CS(=O)(=O)Cc2nc(-c3ccc(C)cc3)oc2C)cc1`, for which the “hERG current change (%, negative = inhibition) at 10uM” value was 12.1%. Next, `O=C(CSc1ncnc2c1cnn2CCc1ccccc1)Nc1cccc(C(F)(F)F)c1`: -3.6%.

`CC(C)(C)c1ccc(S(=O)(=O)N2CC3CC(C2)c2cccc(=O)n2C3)cc1` (centres unmarked): the “hERG current change (%, negative = inhibition) at 10uM” value was -15.6%. Then `CCN(CC)CCNC(=O)C(=O)NCC1OCCN1S(=O)(=O)c1cccs1` (centres unmarked), with 9.64%. Next, `CCOC(=O)C1CCCN(Cc2ccc(OCC)cc2)C1` (centres unmarked): -42.9%; `CCOC(=O)c1c(NC(=O)CN2C(=O)NC3(CCCCC3C)C2=O)sc(C(=O)N(C)C)c1C` (centres unmarked): -37.6%; `COc1cc(=O)n(C)c2cc(N(C)C)ccc12`: 18.9%. Then `Cc1ccc(CN(C)C(=O)c2ccccc2Sc2ccccc2C#N)cc1`, with 23.4%; and `CCc1cc2ccc(C)cc2nc1SCC(=O)NNC(=O)c1ccco1`, with 12%; and `O=C(Nc1ccc(N2CCOCC2)cc1)c1ccc(S(=O)(=O)N2CCCCC2)cc1`, with -1.58%. In the case of `O=C(NC(=O)c1cccc(F)c1)Nc1nc(-c2ccc(F)cc2)cc(C(F)(F)F)n1`, the “hERG current change (%, negative = inhibition) at 10uM” value is 23.5%. With `CCOC(=O)c1nn(C)c(C)c1Cl`, the “hERG current change (%, negative = inhibition) at 10uM” value amounted to 9.88%.

In the case of `Cc1cc(Cl)nc(Cl)c1C(=O)NCc1ccc(Cl)cc1`, the “hERG current change (%, negative = inhibition) at 10uM” value is -17.4%. For `CC(C)(C)c1nnc(SCC(=O)Nc2ccc(N3CCCCC3)cc2)n1N`, the “hERG current change (%, negative = inhibition) at 10uM” value amounted to 3.83%. Then `Cc1cccc(N(C(=O)Cn2nnc(-c3ccc(C)o3)n2)C(C(=O)NC2CCCC2)c2ccncc2)c1` (centres unmarked), with 2.73%; and `CCc1cccc(OCCCCN(CC)CC)c1`, with -37.9%. `CCO[C@@H]1OC(C(=O)N2CCN(C)CC2)=C[C@H](C2CCCCC2)[C@H]1CCCO`: the “hERG current change (%, negative = inhibition) at 10uM” value was 0.0207%. Next, `CC1CCCCC1NC(=O)C1CCN(S(=O)(=O)N2CCOCC2)CC1` (centres unmarked): -8.73%; `C=CCOC(=O)C1=C(C)NC(=O)NC1c1ccc(O)cc1` (centres unmarked): 15.4%; `Cc1cc2nnc(SC(C)C)n2c2ccccc12`: -9.49%.

On to `Br.Cc1ccc(C(=O)CSc2nc3c([nH]2)c(=O)n(C)c(=O)n3C)cc1`, for which the “hERG current change (%, negative = inhibition) at 10uM” value was -5.44%. Then `COc1cccc(NC(=O)c2ccccc2SC)c1`, with -13.5%. Take `COc1ccc(-n2nc(C(=O)NCC(=O)N3CCN(c4ccccn4)CC3)c3ccccc3c2=O)cc1`: the “hERG current change (%, negative = inhibition) at 10uM” value is reported as -34.3%. Then `CCOc1ccccc1C(=O)NC(C(=O)NCc1ccc(F)cc1)C(C)C` (centres unmarked), with -14.7%. Next, `COc1cccc(NC(=O)c2cc3cccc(OC)c3o/c2=N\O)c1`: 9.1%; `O=C(NNC1CC(=O)N(c2ccccc2)C1=O)c1ccc(COc2ccccc2Cl)o1` (centres unmarked): -42.3%. On to `COc1ccc(COC(=O)C2CCN(S(=O)(=O)c3cccs3)CC2)cc1`, for which the “hERG current change (%, negative = inhibition) at 10uM” value is -0.0881%. Then `COc1c(C)cc(Br)cc1C(=O)Nc1ccccc1C`, with 9.28%; and `CCCNc1c(NC(=O)c2ccc3c(c2)OCO3)c(=O)oc2ccccc12`, with 11.8%. Next, `O=C(CC(Nc1cccc(Cl)c1Cl)C(=O)O)c1ccccc1` (centres unmarked): 6.53%; `COC(=O)c1c(N)sc(Cc2ccccc2)c1C`: 4.35%; `Cc1cc(NC(=O)CCOc2ccccc2)no1`: -2.42%. Next, `O=C(Cn1c2[n+](c3ccccc31)CC(O)CS2)c1ccccc1.[Br-]` (centres unmarked): 1.09%; `O=C(CC(CC(=O)c1ccccc1)C(=O)O)c1ccccc1`: 17%; `Cc1noc(NS(=O)(=O)c2ccc(NC(=O)/C=C/c3ccc(C(C)C)cc3)cc2)c1C`: 14.9%. With `COc1ccc([N+](=O)[O-])cc1NC(=O)C(C)OC(=O)CN1C(=O)C2CC=CCC2C1=O` (centres unmarked), the “hERG current change (%, negative = inhibition) at 10uM” value is given as -25.9%. Next, `CC(=O)c1c(C)[nH]c(C(=O)COC(=O)CCCOc2ccccc2)c1C`: 18.7%; `CCCC(CCC(=O)OC)(C(=O)OCC)c1csc(N)n1` (centres unmarked): -7.65%; `CCOC(=O)N1CCC(NC(=O)CN2C(=O)CSc3nc(C)cc(C)c32)CC1`: 4.42%.

As for `Cc1cc([N+](=O)[O-])ccc1NC(=O)CSc1nnc(C)n1C`, the “hERG current change (%, negative = inhibition) at 10uM” value is reported as 16.3%. Next, `O=C(NC(=S)Nc1cccc2cnccc12)c1ccccc1`: 13.8%; `Cc1[nH]c2ccc(Br)cc2c(=O)c1CN1CCOCC1`: -27.2%; `CCn1ccnc1CN1CCCCC1C(=O)Nc1ccc(Oc2cccnc2)cc1` (centres unmarked): -31.3%.

As for `Cc1ccc(-c2cc(C(=O)NCc3ccc4c(c3)OCO4)no2)cc1`, the “hERG current change (%, negative = inhibition) at 10uM” value is -0.641%. Then `CC(C)Oc1ccc(C(CC(=O)NCc2ccco2)c2ccccc2)cc1` (centres unmarked), with 4.55%; and `O=C(COC(=O)c1cc(Cl)ccc1O)NC(=O)NCc1ccccc1`, with 4.6%; and `Cc1ccc2oc(C(F)(F)C(F)F)cc(=O)c2c1`, with -1.7%. Then `CC(C)c1nnc(NC(=O)C2CCCN2C(=O)Nc2ccccc2)s1` (centres unmarked), with 17.3%. Next, `COc1cc(/C=C/C2=NNC(=O)CC2)cc(OC)c1OC`: 10.8%.

`O=C(NCc1nc(-c2ccc(Cl)cc2)no1)c1ccco1`: the “hERG current change (%, negative = inhibition) at 10uM” value is on record as -12.7%. Next, `O=C1c2ccccc2CN1c1ccccc1`: 8.96%; `CCC1C(=O)C(CC)C(c2ccccc2)NC1c1ccccc1` (centres unmarked): 11.9%. Next, `CC(=O)NNc1ncnc2c1cnn2-c1ccc(C)cc1`: 7.67%. For `CCc1ccccc1OCc1nnc(N)s1`, the “hERG current change (%, negative = inhibition) at 10uM” value was determined as 2.48%. Then `CC(C)Oc1ccc(-c2nc(NCC3CCCO3)c3ccccc3n2)cc1` (centres unmarked), with -27.4%. Then `CCOC(=O)Cn1c(=O)c2c(nc(Br)n2CC(=O)OCC)n(C)c1=O`, with -4.97%; and `O=C(c1cccc(S(=O)(=O)Nc2ccccc2Cl)c1)N1CCN(c2ccccc2O)CC1`, with -15%. Next, `Cc1ccc(NC(=O)C2CCCN(C(=O)c3ccc(Cl)cc3)C2)cc1` (centres unmarked): -33.4%; `CC(=O)Nc1ccc(NC(=O)c2ccccc2S(=O)(=O)c2ccc([N+](=O)[O-])cc2)cc1`: 6.38%; `CCN(CC)c1ncnc2sc3c(c12)CCC3.Cl`: -20.4%.

For the compound `CC(C)c1ccc(N)c(S(=O)(=O)O)c1`, the “hERG current change (%, negative = inhibition) at 10uM” value came to 8.28%.

On to `O=C(N/N=C1\CC2CC=CC12)c1ccccc1Cl` (centres unmarked), for which the “hERG current change (%, negative = inhibition) at 10uM” value worked out at 12.2%. Next, `Nc1c(C(=O)NC2CC2)c2nc3ccccc3nc2n1-c1ccc2c(c1)OCO2`: 4.49%; `CCCCNS(=O)(=O)c1ccc2nc(SCC(=O)c3ccccc3OC)[nH]c2c1`: 6.03%.

As to `COc1ccccc1CN1C(=O)C(=O)N(Cc2cccc(C)c2)C1=O`, the “hERG current change (%, negative = inhibition) at 10uM” value amounted to 7.63%. Next, `Cc1nn(Cc2c(F)c(F)c(F)c(F)c2F)c(C)c1NC(=O)c1ccc(COc2ccccc2Cl)o1`: -19.4%; `Fc1cccc(F)c1-c1nc(-c2ccncc2)no1`: 13.8%. Next, `CCCc1cc(C(=O)NNC(=S)NCC)c2ccccc2n1`: 18.1%; `CN(Cc1ccccc1)c1ccc(S(=O)(=O)N2CCC(C(=O)O)CC2)cc1[N+](=O)[O-]`: 22.1%; `Cc1cccc(N(C)S(=O)(=O)c2csc(C(N)=O)c2)c1`: 8.51%. Then `CCN(CC)c1ccc(CNc2nnnn2C)cc1`, with 19.3%.

`COc1cc(C2CC(C(F)(F)F)n3ncc(C(=O)O)c3N2)cc(OC)c1OC` (centres unmarked): the “hERG current change (%, negative = inhibition) at 10uM” value came out at 2.77%. Then `Cn1ccnc1SCC(=O)Nc1cc(C(F)(F)F)ccc1N1CCOCC1`, with -18.3%; and `NS(=O)(=O)c1ccc(OC(=O)CNC(=O)OCc2ccccc2)cc1`, with 11%; and `CC(=O)Nc1ccc(S(=O)(=O)NC2(C(F)(F)F)NC(=O)N(CC(C)C)C2=O)cc1` (centres unmarked), with 15%. Next, `COc1ccc(C(=O)O)cc1NC(=S)NC(=O)/C=C/c1ccc(C(C)C)cc1`: 11.5%. Next, `O=C1CCCN1CCCNS(=O)(=O)c1ccc(Br)cc1`: 15.8%; `O=[N+]([O-])c1cccc(/C=N/NS(=O)(=O)c2ccccc2)c1`: 21.7%; `Cc1ccc(C(=O)NCCSC2CCCCC2)cc1S(=O)(=O)Nc1ccccc1`: -2.9%.
